The source gives no read counts; variants with many changes may rest on few reads.
B1: CPEB3 Ribozyme (parent)
chain: UAACAGGGGGCCACAGCAGAAGCGUUCACGUCGCAGCCCCUGUCAGAUUCUGGUGAAUCUGCGAAUUCUGCUGUAUAUCUC

Variants of: B1
Experiment: self-cleavage, relative activity (ratio to wild type); higher = more cleavage; in vitro, sequencing
Method in brief: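 Barcoded CPEB3 ribozyme mutants, produced by rounds of error-prone PCR, self-cleaved while being transcribed with T7 RNA polymerase for 5 hours at 37°C and during a subsequent 15 min DNase I step before EDTA was added. Sequencing of template-switched cDNA on Illumina gave cleaved and total reads, and DNA sequencing assigned barcodes to variants. Each variant's relative activity is its cleaved/total read fraction divided by the unmutated ribozyme's fraction, averaged across three batches. A variant needed a minimum of 5 reads.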
UAACAGGGGGCCACAGCAGAAGCGUACACGUCGCAGCCCCUGUCAGAUUCUGGUGAAUCUGUGAAUUCUGCGGUAUAUCUC [U26A C62U U72G] gave a self-cleavage of 0.18. For UAACAGGGGGCCACAGCAGAAGCGUCCGCGUCGCAGCCCCUGUCAGAUUCUGGUGAAUCUGCGUAUUCUGCUGUAUAUCUC [U26C A28G A64U], the self-cleavage was 0.29. UAACAGGGGGCCACAGCAGAAGCGUACACGUCGCAGCCCCGGUCAGAUUCUGGUGAAUCUGCGUAUUCUGCUGUACAUCUC [U26A U41G A64U U76C] showed a self-cleavage of 0.14. Variant UAACAGGGGGCCACAGCAGAAGCGUACACGUCGCAGCCCCUGACAGAUUCUGGUGAAUCUGCGCAUUCUGCUGUAUAUCUC [U26A U43A A64C] has a self-cleavage of 0.13. UAACAGGGGGCCACAGCAGAAGCGUACACGUCGCAGCCCCUGUCAGAUUCUGGUGAAUCCGCGUAUUCAGCUGUAUAUCUC [U26A U60C A64U U69A] gave a self-cleavage of 0.16. For UAACAGGGGGCCACAGCAGAAGCGUACACGUCGCAGCCCCCGUCGGAUUCUGGUGAAUCUGCGAAUUCUGCUGUAUAUCUC [U26A U41C A45G], the self-cleavage was 0.47. Variant UAACAGGGGGCCACAGCAGAAGCGUACACGUCGCAGCCCCUGUCAGAUUCGGGCGAAUCUGCGAAUUCUGCUGUAUAUCUC [U26A U51G U54C] has a self-cleavage of 0.88. For UAACAGGGGGCCACAGCAGAAGCGUCCUCGUCGCAGCCCCUGUCAGAUUCUGGUGUAUCUGCGAAUACUGCAGUAUAUCCC [U26C A28U A56U U67A U72A U80C], the self-cleavage was 0.07. In the case of UAACAGGGGGCCACAGCAGAAGCGUCCACGUCGCCGCCCCUGUCAGAUUCUGGUGAAUCUUCGAAUUCUGCUGUAUAUCUC [U26C A35C G61U], the self-cleavage is reported as 0.09. Work on UAACAGGGGGCCACAGCAGAAGCGUACACGUCGCAGCCCCUGUCAGAUUCUGGAGUAUCUGCGAAUUCUGCUGUAUAUCUC [U26A U54A A56U] yielded a self-cleavage of 0.61. Work on UAACAGGGGGCCACAGCAGAAGCGUACACGUCGCAGCCCCUGUCAGAUACUGGUGAAUCUGCGAAUCCUGCUGUAUACCUC [U26A U49A U67C U78C] yielded a self-cleavage of 0.12. Work on UAACAGGGGGCCACAGCAGAAGCGUACACGACGCAGCCCCUGUCAGAUUCUGGAGAAUCUGCGAAUUCUGCUGUAUAUCUC [U26A U31A U54A] yielded a self-cleavage of 0.57. UAACAGGGGGCCACAGCAGAAGCGUACACGCCGCAGCCCCUGUCAGAUUCUGGUGAAUCAGCGAAUUCUGCUGUAUAUCUC [U26A U31C U60A] gave a self-cleavage of 0.51. For UAACAGGGGGCCACAGCAGAAGCGUACACGUCGCAGCCCCUGUCAGAUUCUAGUGAAUCUGCGAAUUCAGCUGUAUAUCUC [U26A G52A U69A], the self-cleavage was 0.38. In the case of UAACAGGGGGCCACAGCAGAAGCGUACACGUCGCAGCCCCUGUCAGAUUCUGGUGAAUCUGCGAAUUCUGCUAUAUAUCCC [U26A G73A U80C], the self-cleavage is reported as 1.41. In the case of UAACAGGGGGCCACAGCAGAAGCGUCCGCGUCGCGGCCCCUGUCAGAUUCUGGUGAAUAUGCGAAUUCUGCUGUAUAUCGC [U26C A28G A35G C59A U80G], the self-cleavage is reported as 0.09. In the case of UAACAGGGGGCCACAGCAGAAGCGUACACGCCCCAGCCCCUGCCAGAUUCUGGUGAAUCUGCGAAUUCAGCUGUAUCUCUC [U26A U31C G33C U43C U69A A77C], the self-cleavage is reported as 0.04. Work on UAACAGGGGGCCACAGCAGAAGCGUACACUUCGCAGCCCCUGUCAGAUUCUGGUGAGUCUGCGAAUUCUGCUGUAUAUCUC [U26A G30U A57G] yielded a self-cleavage of 0.07. Work on UAACAGGGGGCCACAGCAGAAGCGUACACGUCGCAGCCCCUGUCAGAUUCUGGUGAAUCUGCGAAUUCUGCUGAAUGUCUC [U26A U74A A77G] yielded a self-cleavage of 1.25. In the case of UAACAGGGGGCCACAGCAGAAGCGUCCGCGUCGCAGCCCCUGCCAGAUUCCGGUGAAUCUGCGAAUUCUGCUGUCUAUCUG [U26C A28G U43C U51C A75C C81G], the self-cleavage is reported as 0.75. UAACAGGGGGCCACAGCAGAAGCGUACACGUCGCAGCCCCUGUCAGAUUCUGGUGAAUCAGCGAAUUCUGCUGUAUACCUC [U26A U60A U78C] gave a self-cleavage of 0.31. With UAACAGGGGGCCACAGCAGAAGCGUCCGCGUAGCAGCCCCUGUCAGAUUCUGGUGAGUCUGCGAGUUCUGCUGUAUAUCUC [U26C A28G C32A A57G A65G] the self-cleavage was 0.07. In the case of UAACAGGGGGCCACAGCAGAAGCGUCCGCGUCGGAGCCCCUGUCAGACUCUGGUGAAUCUGCGGAUGCUGCUGUAUUUCUC [U26C A28G C34G U48C A64G U67G A77U], the self-cleavage is reported as 0.09. Work on UAACAGGGGGCCACAGCAGAAGCGUACACGUCGCAGCCCCUGUCAGAUUCUGGUGAAUCCGCGAGUUCUGCUGUAUAUCUC [U26A U60C A65G] yielded a self-cleavage of 0.3. Variant UAACAGGGGGCCACAGCAGAAGCGUCCCCGCCGCUGCCCCUGUCAGAUUCUGGUGAGUCUGCGAAUUCUGCUGAAUAUCUC [U26C A28C U31C A35U A57G U74A] has a self-cleavage of 0.07. In the case of UAACAGGGGGCCACAGCAGAAGCGUCCGCGUCGCAGCCCCUGUCAGAUUCCGGUGAAUCAGCGAAUUCUGCUGUAUAUCUC [U26C A28G U51C U60A], the self-cleavage is reported as 0.12. UAACAGGGGGCCACAGCAGAAGCGUCCGCGUCGCAGCCCUUGUCAGGUUCUGGUGAAUCUGCGAAUUCUGCUGUAUAUCUC [U26C A28G C40U A47G] gave a self-cleavage of 0.17. Variant UAACAGGGGGCCACAGCAGAAGCGUCCUCGUCGCUGCCCCUGUCAGAUUCUGGUGAAUCUGCGAAUUCUGCUGUAUAUCUC [U26C A28U A35U] has a self-cleavage of 0.12. UAACAGGGGGCCACAGCAGAAGCGUCCACGUCGCGGCCCCUGUCAGACUCUGGUGAAUCUGCGAUUUCUGCUGUAUAUCUC [U26C A35G U48C A65U] gave a self-cleavage of 0.14. Variant UAACAGGGGGCCACAGCAGAAGCGUACACGUCGCAGCCCCCGUCAGAUUCUGGUGAAUCUGCGAACUCUGCUGUAUAUCUC [U26A U41C U66C] has a self-cleavage of 0.25. For UAACAGGGGGCCACAGCAGAAGCGUACACGUCGCAGCCCCUAUCAGAUUCUGGUGAAUCUGCGAUUUCUGCUGUAUAUCUC [U26A G42A A65U], the self-cleavage was 0.16. For UAACAGGGGGCCACAGCAGAAGCGUACACGUCGCAGCCCCUGUUAGAUUCUGGCGAAUCUGCGAAUUCUGCUGUAUGACUC [U26A C44U U54C A77G U78A], the self-cleavage was 0.07. Work on UAACAGGGGGCCACAGCAGAAGCGUACACGCCGCAGCCCCUGCCGGAUUCUGGUGAAUCUGCGAACUCUGCUGUAUAUCUC [U26A U31C U43C A45G U66C] yielded a self-cleavage of 0.32. UAACAGGGGGCCACAGCAGAAGCGUACACGACGCAGCCCCUGUCAGAUUCUGGUGAAUCUGCGAAUUCUGCAGUAUAUCUC [U26A U31A U72A] gave a self-cleavage of 0.15.

Source: the RNAGym collection of RNA variant scans (doi:10.1093/nar/gkz1192)
